Results taken from the supplement of paper PMC6206098.
± gives the uncertainty stated by the source. Shown are siRNA guide strands that differ only in the seed, positions 2 to 7.

Legend:
[1] = tested on: 3LL; assay: cell viability relative to siNT1 control; higher = less toxic; settings: concentration: 10 nM; 96 h; Mus musculus;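 further: Luminescence-based viability of cells reverse transfected in 384-well plates with lipid-complexed siRNAs built on a non-toxic 19mer backbone whose passenger strand carries 2′-O-methyl groups at positions 1 and 2, triplicates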
[2] = tested on: H460; assay: cell viability relative to lipid-only control; HeyA8 human ovarian and H460 human lung cancer; M565 mouse liver and 3LL mouse lung cancer; siNT1 is a non-toxic control siRNA; higher = less toxic; settings: concentration: 10 nM; 96 h; Homo sapiens
Experimental: (§1)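 Arrayed screen of 4096 siRNA duplexes, each carrying one of all possible 6mer seeds at guide-strand positions 2-7 in a fixed neutral 19mer scaffold (constant flanks: U at position 1, then ACAUGUAAACCA, plus a 3' AA overhang). The passenger strand is 2'-O-methylated at positions 1-2 so only the guide strand loads into RISC. Duplexes were reverse-transfected at 10 nM with RNAiMAX in triplicate in 384-well plates; viability was read by CellTiter-Glo ATP content 96 h after transfection. Values are % viability normalised to lipid-only wells (HeyA8, H460, M565) or to siNT1 (3LL).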

[3] = tested on: HeyA8; assay: as above; settings: concentration: 10 nM; 96 h; Homo sapiens
Experimental: as §1

[4] = tested on: M565; assay: as above; settings: concentration: 10 nM; 96 h; Mus musculus
Experimental: as §1
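Wherever cell viability relative to lipid-only control is given: reverse lipid transfection in 384-well plates, in triplicate, of duplexes on a non-toxic 19mer backbone with passenger strand 2′-O-methylated at positions 1 and 2, luminescence viability read-out.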

Sequence | cell viability [1] [%] | cell viability [2] [%] | cell viability [3] [%] | cell viability [4] [%]
UACUACAACAUGUAAACCAAA | 93.8 ± 15 | 86.2 ± 17 | 87.7 ± 3.9 | 62.2 ± 10
UUACCCAACAUGUAAACCAAA | 65.3 ± 2.2 | 63.3 ± 12 | 50.5 ± 1.2 | 40.8 ± 8.3
UGCACGUACAUGUAAACCAAA | 88.6 ± 5.9 | 54.6 ± 3.5 | 64.1 ± 8.7 | 40.6 ± 7.9
UCCCGUUACAUGUAAACCAAA | 100 ± 23 | 95.2 ± 11 | 80.7 ± 6.8 | 46.3 ± 11
UCCCUCUACAUGUAAACCAAA | 75.3 ± 15 | 38.1 ± 6.3 | 44.66 ± 0.21 | 55.6 ± 5.1
UCUUCUGACAUGUAAACCAAA | 92.6 ± 13 | 67.8 ± 3 | 88.6 ± 6.5 | 63.8 ± 13
UUCCCCGACAUGUAAACCAAA | 69.3 ± 10 | 90.8 ± 7.6 | 84.5 ± 8 | 22.22 ± 0.15
UGCGAGGACAUGUAAACCAAA | 87.2 ± 9.1 | 58.7 ± 6.3 | 53.3 ± 3.8 | 59.4 ± 2.8
UGGGCUUACAUGUAAACCAAA | 40.6 ± 11 | 32.1 ± 7.1 | 7.36 ± 0.7 | 24.4 ± 8.8
UACUGAUACAUGUAAACCAAA | 78.7 ± 6.7 | 96.5 ± 6.8 | 78.5 ± 7.1 | 45.9 ± 7.1
UGCUGUUACAUGUAAACCAAA | 50.5 ± 3.8 | 91.9 ± 13 | 66.1 ± 9 | 18.3 ± 6.8
UGCGAAAACAUGUAAACCAAA | 89.8 ± 7.8 | 90.5 ± 2.6 | 86.5 ± 7.6 | 81.5 ± 2.3
UGUUCGAACAUGUAAACCAAA | 94.3 ± 5.3 | 73.1 ± 16 | 79.8 ± 4.4 | 41.4 ± 7.4
UAACGACACAUGUAAACCAAA | 93 ± 7.8 | 65.7 ± 7.7 | 94 ± 9 | 69 ± 7.6
UAAUAAUACAUGUAAACCAAA | 112 ± 12 | 75 ± 6.5 | 81.3 ± 10 | 73.6 ± 20
UAAUAUAACAUGUAAACCAAA | 121 ± 7.5 | 89.4 ± 13 | 99.5 ± 4.8 | 93.1 ± 1.2
UUGUUUGACAUGUAAACCAAA | 51.6 ± 4.2 | 59.4 ± 1.2 | 56.9 ± 4.1 | 88.9 ± 29
UGCACGAACAUGUAAACCAAA | 83.3 ± 15 | 62.8 ± 5.8 | 64.2 ± 5.7 | 56.9 ± 15
UAAGUAUACAUGUAAACCAAA | 81.6 ± 3 | 57.6 ± 5.7 | 64.6 ± 11 | 64.2 ± 2.4
UUAGGCUACAUGUAAACCAAA | 44.1 ± 3.3 | 52.2 ± 4.9 | 37.8 ± 4.2 | 43.8 ± 9.5
UUACAUUACAUGUAAACCAAA | 102 ± 9.1 | 72.1 ± 13 | 94.3 ± 1.1 | 104 ± 15
UAUUCGCACAUGUAAACCAAA | 71.9 ± 20 | 61.5 ± 6 | 70.4 ± 11 | 69.8 ± 1.7

Sequence | cell viability [1] [%] | cell viability [2] [%] | cell viability [3] [%] | cell viability [4] [%]
UGAUAGUACAUGUAAACCAAA | 16.9 ± 3.1 | 52 ± 3.4 | 42.6 ± 7 | 16.7 ± 1.9
UGGACCAACAUGUAAACCAAA | 45.1 ± 6.8 | 66.8 ± 13 | 76.1 ± 12 | 8.31 ± 1.7
UCAUCGUACAUGUAAACCAAA | 49.1 ± 11 | 50.9 ± 6.5 | 47.8 ± 6 | 37.4 ± 3
UAAUAACACAUGUAAACCAAA | 89.4 ± 18 | 77.4 ± 4.9 | 78.1 ± 4.7 | 89.5 ± 17
UCAAGUUACAUGUAAACCAAA | 65.5 ± 4.6 | 67.4 ± 4.8 | 65.8 ± 4.6 | 21.6 ± 3.4
UCACGCAACAUGUAAACCAAA | 105 ± 13 | 37.7 ± 7.6 | 87 ± 6 | 76.4 ± 6.4
UAACUAAACAUGUAAACCAAA | 88.3 ± 11 | 81.9 ± 14 | 90 ± 13 | 79.8 ± 18
UAACUCAACAUGUAAACCAAA | 85.3 ± 5.4 | 67.7 ± 22 | 80.8 ± 11 | 63.9 ± 6.6
UCUCAAGACAUGUAAACCAAA | 101 ± 8.1 | 27.9 ± 6.6 | 89.3 ± 4.7 | 69.6 ± 12
UGCGGCCACAUGUAAACCAAA | 17.8 ± 4.3 | 27.7 ± 2.5 | 24.9 ± 1.1 | 18.6 ± 8.7
UAAUAGUACAUGUAAACCAAA | 5.85 ± 2.3 | 43.7 ± 3.8 | 62.5 ± 4.7 | 29.3 ± 8.2
UGGGCCCACAUGUAAACCAAA | 13.3 ± 4.6 | 37.9 ± 3 | 24.2 ± 1.8 | 11.5 ± 1.5
UGUUAUUACAUGUAAACCAAA | 95.1 ± 8.2 | 66.3 ± 7.1 | 63.1 ± 6.7 | 66.1 ± 2
UAUUCACACAUGUAAACCAAA | 64.1 ± 15 | 63.7 ± 6.8 | 87 ± 10 | 83.7 ± 5.6
UACGGGGACAUGUAAACCAAA | 59.2 ± 2.1 | 53.7 ± 3.6 | 49.3 ± 13 | 76.9 ± 14
UGUCACAACAUGUAAACCAAA | 87.1 ± 12 | 20.6 ± 1.4 | 83.2 ± 10 | 44.3 ± 1.7
UUGACUCACAUGUAAACCAAA | 62.8 ± 1.1 | 63.1 ± 16 | 71 ± 2.8 | 81.8 ± 5.2
UGGCUGCACAUGUAAACCAAA | 25.4 ± 5.5 | 23.2 ± 1.2 | 5 ± 0.78 | 5.78 ± 1.3
UGAAAAAACAUGUAAACCAAA | 100 ± 14 | 64.1 ± 6.1 | 97.3 ± 5.1 | 78.7 ± 8.4
UGUAGACACAUGUAAACCAAA | 60.4 ± 16 | 50.5 ± 6.9 | 18.4 ± 3 | 23 ± 7.2
UCCGACCACAUGUAAACCAAA | 48.1 ± 9.4 | 38.9 ± 3.2 | 5.47 ± 0.31 | 17.2 ± 3.5
UCGAUAUACAUGUAAACCAAA | 84.8 ± 20 | 86.9 ± 16 | 84.1 ± 4.1 | 75.2 ± 11
